Measured values reported in paper PMC7150477.
These are yes or no findings as the source states them, for the method shown. For part of these data: Binding seen in cells or lysates may run through a third protein. Some binding calls cover weakened binding; strength is not graded here.

By UniProt entry, the sequences of proteins in these tests, tags left out. Where a name states a change or a piece, a line headed by the entry shows the natural chain unless it says otherwise.
UniProt O14744: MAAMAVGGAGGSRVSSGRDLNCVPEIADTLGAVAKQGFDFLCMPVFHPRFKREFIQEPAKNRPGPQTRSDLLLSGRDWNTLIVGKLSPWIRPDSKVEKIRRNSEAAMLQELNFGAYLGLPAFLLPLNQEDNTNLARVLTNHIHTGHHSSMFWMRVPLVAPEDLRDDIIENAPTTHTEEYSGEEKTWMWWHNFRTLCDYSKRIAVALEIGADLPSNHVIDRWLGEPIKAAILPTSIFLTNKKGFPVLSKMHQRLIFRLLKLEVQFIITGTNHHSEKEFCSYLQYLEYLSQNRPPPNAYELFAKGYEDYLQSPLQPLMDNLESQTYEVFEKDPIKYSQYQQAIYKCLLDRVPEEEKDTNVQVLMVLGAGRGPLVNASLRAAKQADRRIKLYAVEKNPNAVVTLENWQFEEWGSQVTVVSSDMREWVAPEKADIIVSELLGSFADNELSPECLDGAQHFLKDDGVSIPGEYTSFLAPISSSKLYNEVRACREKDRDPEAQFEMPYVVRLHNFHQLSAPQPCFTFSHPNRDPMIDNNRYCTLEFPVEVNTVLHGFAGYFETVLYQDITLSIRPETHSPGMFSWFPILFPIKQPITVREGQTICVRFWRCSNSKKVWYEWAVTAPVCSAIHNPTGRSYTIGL
UniProt P01106: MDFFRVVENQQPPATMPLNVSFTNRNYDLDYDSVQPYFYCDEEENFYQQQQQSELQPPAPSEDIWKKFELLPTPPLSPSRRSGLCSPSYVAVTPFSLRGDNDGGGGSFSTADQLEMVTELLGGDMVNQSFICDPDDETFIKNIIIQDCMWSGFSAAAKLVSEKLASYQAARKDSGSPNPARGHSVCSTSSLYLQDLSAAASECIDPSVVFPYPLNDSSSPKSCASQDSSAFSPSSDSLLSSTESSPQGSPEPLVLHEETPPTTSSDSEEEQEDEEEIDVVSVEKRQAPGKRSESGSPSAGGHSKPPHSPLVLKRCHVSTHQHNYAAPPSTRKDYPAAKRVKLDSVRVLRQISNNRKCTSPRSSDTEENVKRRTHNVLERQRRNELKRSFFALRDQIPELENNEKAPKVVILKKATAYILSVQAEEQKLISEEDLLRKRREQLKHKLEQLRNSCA

Assays:
[1] = target: GST-PRMT5 (wild-type) (human) (UniProt O14744); assay: pull-down; GST pull-down: purified GST or GST-PRMT5 (wild type or mutant) as bait, purified His-tagged c-Myc as prey, Western blot with c-Myc antibody; both purified
GST-PRMT5 R488A (human) = GST-PRMT5 R488A (human) (UniProt O14744); assay: as above
His-tagged c-Myc = His-tagged c-Myc (UniProt P01106); assay: pull-down; purified His-tagged c-Myc pre-adsorbed to nitrilotriacetic acid-nickel beads, incubated with purified GST or GST-PRMT5 fragments F1, F2 or F3; both purified
[2] = target: Flag-tagged PRMT5 (human) (UniProt O14744); assay: co-IP; anti-Flag antibody-conjugated sepharose beads precipitate Flag-PRMT5 from cellular extracts of SGC7901 cells overexpressing it; endogenous c-Myc detected by Western blot; IgG as negative control

Row | binding (His-tagged c-Myc) | Substance | also measured
1 |  | His-tagged c-Myc (from UniProt P01106 1-454) | binding [1]: binds; binding (GST-PRMT5 R488A (human)): binds
2 | binds | GST-PRMT5 F3 (amino acids 454-637) (from UniProt O14744 454-637) (domain or fragment) | 
3 | no binding | GST-PRMT5 F1 (amino acids 1-354) (from UniProt O14744 1-354) (domain or fragment) | 
4 |  | endogenous c-Myc (from UniProt P01106 1-454) | binding [2]: binds
5 | no binding | GST-PRMT5 F2 (amino acids 355-453) (from UniProt O14744 355-453) (domain or fragment) | 
